# Measured values reported in the supplement of paper PMC8728848.
# Some of the results follow.
# Legend:
# Assay in all cases: glycan array binding signal (z-score within array); higher = stronger binding
# Conditions in all cases: glycan notation: IUPAC condensed, linker removed
# Fuc(a1-2)Gal = target: Fuc(a1-2)Gal
# Summary of the method: (§1)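 The Consortium for Functional Glycomics database supplied 3228 glycan arrays, of which those lacking an available protein sequence were dropped. The binding signal, a within-array Z-score, was averaged across arrays of the same protein sequence and across linkers. Negative scores can be read as non-binding.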
# Fuc(a1-2)Gal(b1-3)GalNAc = target: Fuc(a1-2)Gal(b1-3)GalNAc
# Summary of the method: as §1
# [1] = target: Fuc(a1-2)Gal(b1-3)GalNAc(a1-3)[Fuc(a1-2)]Gal(b1-4)Glc
# Summary of the method: as §1
# [2] = target: Fuc(a1-2)Gal(b1-3)GalNAc(a1-3)[Fuc(a1-2)]Gal(b1-4)GlcNAc
# Summary of the method: as §1
# [3] = target: Fuc(a1-2)Gal(b1-3)GalNAc(b1-3)Gal
# Summary of the method: as §1
# [4] = target: Fuc(a1-2)Gal(b1-3)GalNAc(b1-3)Gal(a1-4)Gal(b1-4)Glc
# Summary of the method: as §1
# [5] = target: Fuc(a1-2)Gal(b1-3)GalNAc(b1-4)[Neu5Ac(a2-3)]Gal(b1-4)Glc
# Summary of the method: as §1
# Fuc(a1-2)Gal(b1-3)GlcNAc = target: Fuc(a1-2)Gal(b1-3)GlcNAc
# Summary of the method: as §1
# [6] = target: Fuc(a1-2)Gal(b1-3)GlcNAc(b1-2)Man(a1-3)[Fuc(a1-2)Gal(b1-3)GlcNAc(b1-2)Man(a1-6)]Man(b1-4)GlcNAc(b1-4)GlcNAc
# Summary of the method: as §1
# [7] = target: Fuc(a1-2)Gal(b1-3)GlcNAc(b1-3)Gal(b1-4)Glc
# Summary of the method: as §1
# [8] = target: Fuc(a1-2)Gal(b1-3)GlcNAc(b1-3)[Fuc(a1-3)[Gal(b1-4)]GlcNAc(b1-6)]Gal(b1-4)Glc
# Summary of the method: as §1
# [9] = target: Fuc(a1-2)Gal(b1-3)[Fuc(a1-4)]GlcNAc
# Summary of the method: as §1
# [10] = target: Fuc(a1-2)Gal(b1-3)[Fuc(a1-4)]GlcNAc(b1-2)Man(a1-3)[Fuc(a1-2)Gal(b1-3)[Fuc(a1-4)]GlcNAc(b1-2)Man(a1-6)]Man(b1-4)GlcNAc(b1-4)GlcNAc
# Summary of the method: as §1
# [11] = target: Fuc(a1-2)Gal(b1-3)[Fuc(a1-4)]GlcNAc(b1-3)[Fuc(a1-3)[Gal(b1-4)]GlcNAc(b1-6)]Gal(b1-4)Glc
# Summary of the method: as §1
# [12] = target: Fuc(a1-2)Gal(b1-3)[Fuc(a1-4)]GlcNAc(b1-3)[Gal(b1-4)GlcNAc(b1-6)]Gal(b1-4)Glc
# Summary of the method: as §1
# Fuc(a1-2)Gal(b1-4)Glc = target: Fuc(a1-2)Gal(b1-4)Glc
# Summary of the method: as §1
# Fuc(a1-2)Gal(b1-4)Glc6S = target: Fuc(a1-2)Gal(b1-4)Glc6S
# Summary of the method: as §1
# Fuc(a1-2)Gal(b1-4)GlcNAc = target: Fuc(a1-2)Gal(b1-4)GlcNAc
# Summary of the method: as §1
# [13] = target: Fuc(a1-2)Gal(b1-4)GlcNAc(b1-2)Man(a1-3)[Fuc(a1-2)Gal(b1-4)GlcNAc(b1-2)Man(a1-6)]Man(b1-4)GlcNAc(b1-4)GlcNAc
# Summary of the method: as §1
# [14] = target: Fuc(a1-2)Gal(b1-4)GlcNAc(b1-3)Gal(b1-4)GlcNAc
# Summary of the method: as §1
# [15] = target: Fuc(a1-2)Gal(b1-4)GlcNAc(b1-3)Gal(b1-4)GlcNAc(b1-3)Gal(b1-4)GlcNAc
# Summary of the method: as §1
# [16] = target: Fuc(a1-2)Gal(b1-4)GlcNAc(b1-3)GalNAc
# Summary of the method: as §1
# [17] = target: Fuc(a1-2)Gal(b1-4)GlcNAc6S
# Summary of the method: as §1
# [18] = target: Fuc(a1-2)Gal(b1-4)[Fuc(a1-3)]GlcNAc
# Summary of the method: as §1
# [19] = target: Fuc(a1-2)Gal(b1-4)[Fuc(a1-3)]GlcNAc(b1-2)Man(a1-3)[Fuc(a1-2)Gal(b1-4)[Fuc(a1-3)]GlcNAc(b1-2)Man(a1-6)]Man(b1-4)GlcNAc(b1-4)GlcNAc
# Summary of the method: as §1
# [20] = target: Fuc(a1-2)Gal(b1-4)[Fuc(a1-3)]GlcNAc(b1-3)Gal(b1-4)[Fuc(a1-3)]GlcNAc
# Summary of the method: as §1
# [21] = target: Fuc(a1-2)Gal(b1-4)[Fuc(a1-3)]GlcNAc(b1-3)Gal(b1-4)[Fuc(a1-3)]GlcNAc(b1-3)Gal(b1-4)[Fuc(a1-3)]GlcNAc
# Summary of the method: as §1
# Fuc(a1-2)Gal6S(b1-4)Glc = target: Fuc(a1-2)Gal6S(b1-4)Glc
# Summary of the method: as §1
# [22] = target: Fuc(a1-2)Gal6S(b1-4)Glc6S
# Summary of the method: as §1
# [23] = target: Fuc(a1-2)Gal6S(b1-4)GlcNAc
# Summary of the method: as §1
binder,measurement,setting,value
"Gal 3 (Homo sapiens), P17931 (protein) MADNFSLHDALSGSGNPNPQGWPGAWGNQPAGAGGYPGASYPGAYPGQAPPGAYPGQAPPGAYHGAPGAYPGAPAPGVYPGPPSGPGAYPSSGQPSAPGAYPATGPYGAPAGPLIVPYNLPLPGGVVPRMLITILGTVKPNANILDFQRGNDVAFHFNPRFNENNRRVIVCNTKLDNNWGREERQSVFPFESGKPFKIQVLVEPDHFKVAVNDAHLLQYNHRVKKLNEISKLGISGDIDLTSASYTMI",glycan array binding signal (z-score),Fuc(a1-2)Gal,-0.39
same,glycan array binding signal (z-score),Fuc(a1-2)Gal(b1-3)GalNAc,-0.386
same,glycan array binding signal (z-score),[1],-0.389
same,glycan array binding signal (z-score),[2],0.713
same,glycan array binding signal (z-score),[3],-0.385
same,glycan array binding signal (z-score),[4],-0.387
same,glycan array binding signal (z-score),[5],-0.39
same,glycan array binding signal (z-score),Fuc(a1-2)Gal(b1-3)GlcNAc,0.228
same,glycan array binding signal (z-score),[6],-0.192
same,glycan array binding signal (z-score),[7],1.9
same,glycan array binding signal (z-score),[8],-0.332
same,glycan array binding signal (z-score),[9],-0.391
same,glycan array binding signal (z-score),[10],-0.387
same,glycan array binding signal (z-score),[11],-0.384
same,glycan array binding signal (z-score),[12],-0.331
same,glycan array binding signal (z-score),Fuc(a1-2)Gal(b1-4)Glc,-0.318
same,glycan array binding signal (z-score),Fuc(a1-2)Gal(b1-4)Glc6S,-0.385
same,glycan array binding signal (z-score),Fuc(a1-2)Gal(b1-4)GlcNAc,0.024
same,glycan array binding signal (z-score),[13],2.21
same,glycan array binding signal (z-score),[14],3.22
same,glycan array binding signal (z-score),[15],3.62
same,glycan array binding signal (z-score),[16],-0.382
same,glycan array binding signal (z-score),[17],0.333
same,glycan array binding signal (z-score),[18],-0.379
same,glycan array binding signal (z-score),[19],-0.384
same,glycan array binding signal (z-score),[20],-0.384
same,glycan array binding signal (z-score),[21],-0.387
same,glycan array binding signal (z-score),Fuc(a1-2)Gal6S(b1-4)Glc,-0.392
same,glycan array binding signal (z-score),[22],-0.388
same,glycan array binding signal (z-score),[23],-0.388
